Test results: the supplement of paper PMC4604168 (melanoma cell lines)
This is one part of the list. Many values rest on one well or one pass, so single values are uncertain.

The molecules below were run on IST-MEL1 (assay: cell count relative to DMSO control; melanoma cells; higher = more viable cells). Settings: library dose: low library concentration; 72 h.
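Also: cell number obtained by counting DAPI-stained nuclei in high-throughput microscope images with image analysis software, screen run in 1,536-well plates.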

Structure (SMILES)	cell count
C#Cc1cccc(Nc2ncnc3cc(OCCOC)c(OCCOC)cc23)c1 [erlotinib] + C/C(O)=C(\C#N)C(=O)Nc1cc(Br)ccc1Br [LFM-A13] (first compound 0.8 µM, partner dose 2 µM)	97.8%
Oc1nc(-c2ccc(C(F)(F)F)cc2)nc2c1CSCC2 + O=C(Oc1ccc([N+](=O)[O-])cc1)N1CCC(C(O)(c2ccc3c(c2)OCO3)c2ccc3c(c2)OCO3)CC1 [JZL184] (first compound 2 µM, partner dose 1 µM)	101%
C[C@@H]1CCN(C(=O)CC#N)C[C@@H]1N(C)c1ncnc2[nH]ccc12 + Cc1cc(SCc2sc(-c3ccc(C(F)(F)F)c(F)c3)nc2C)ccc1OCC(=O)O [GW0742] (first compound 1 µM, partner dose 2 µM)	96.5%
COc1cc2ncnc(Nc3ccc(Oc4ccccc4)cc3)c2cc1OC + O=C(Oc1ccc([N+](=O)[O-])cc1)N1CCC(C(O)(c2ccc3c(c2)OCO3)c2ccc3c(c2)OCO3)CC1 [JZL184] (first compound 2 µM, partner dose 1 µM)	99.3%
C[C@@H]1CCN(C(=O)CC#N)C[C@@H]1N(C)c1ncnc2[nH]ccc12 + C/C(O)=C(\C#N)C(=O)Nc1cc(Br)ccc1Br [LFM-A13] (first compound 1 µM, partner dose 2 µM)	100%
COCC[n+]1c2c(n(Cc3cnccn3)c1C)C(=O)c1ccccc1C2=O + C/C(O)=C(\C#N)C(=O)Nc1cc(Br)ccc1Br [LFM-A13] (first compound 0.0004 µM, partner dose 2 µM)	85.4%
Cc1cc(Nc2cc(N3CCN(C)CC3)nc(Sc3ccc(NC(=O)C4CC4)cc3)n2)n[nH]1 [Tozasertib] + N.N.[Cl][Pt][Cl] [cisplatin] (first compound 0.006 µM, partner dose 1.6 µM)	86%
COc1cc2ncnc(Nc3ccc(Oc4ccccc4)cc3)c2cc1OC + C/C(O)=C(\C#N)C(=O)Nc1cc(Br)ccc1Br [LFM-A13] (first compound 2 µM, partner dose 2 µM)	91.7%
O=C(O)C(=O)Nc1sc2c(c1C(=O)O)CCNC2 + O=C(Oc1ccc([N+](=O)[O-])cc1)N1CCC(C(O)(c2ccc3c(c2)OCO3)c2ccc3c(c2)OCO3)CC1 [JZL184] (first compound 1.66667 µM, partner dose 1 µM)	106%
CC(C)C[C@H](NC(=O)[C@H](Cc1ccccc1)NC(=O)c1cnccn1)B(O)O [Bortezomib] + N.N.[Cl][Pt][Cl] [cisplatin] (first compound 0.001 µM, partner dose 1.6 µM)	77.5%
CC(C)C[C@H](NC(=O)[C@H](Cc1ccccc1)NC(=O)c1cnccn1)B(O)O [Bortezomib] + C[As](C)SC[C@H](NC(=O)CC[C@H](N)C(=O)O)C(=O)NCC(=O)O [Darinaparsin] (first compound 0.001 µM, partner dose 0.4 µM)	93.2%
Cc1nc(Nc2ncc(C(=O)Nc3c(C)cccc3Cl)s2)cc(N2CCN(CCO)CC2)n1 [dasatanib] + C/C(O)=C(\C#N)C(=O)Nc1cc(Br)ccc1Br [LFM-A13] (first compound 0.004 µM, partner dose 2 µM)	95.9%
Cn1c(Nc2ccc(C(F)(F)F)cc2)nc2cc(Oc3ccnc(-c4ncc(C(F)(F)F)[nH]4)c3)ccc21 + O=C(Oc1ccc([N+](=O)[O-])cc1)N1CCC(C(O)(c2ccc3c(c2)OCO3)c2ccc3c(c2)OCO3)CC1 [JZL184] (first compound 0.08 µM, partner dose 1 µM)	99.4%
C#Cc1cccc(Nc2ncnc3cc(OCCOC)c(OCCOC)cc23)c1 [erlotinib] + C[As](C)SC[C@H](NC(=O)CC[C@H](N)C(=O)O)C(=O)NCC(=O)O [Darinaparsin] (first compound 0.8 µM, partner dose 0.4 µM)	92.4%
Nc1ccn([C@@H]2O[C@H](CO)[C@@H](O)C2(F)F)c(=O)n1 [gemcitabine] + C[As](C)SC[C@H](NC(=O)CC[C@H](N)C(=O)O)C(=O)NCC(=O)O [Darinaparsin] (first compound 0.0004 µM, partner dose 0.4 µM)	60.3%
